According to the supplement of paper PMC12632987:
Whole data set: some 4,500 sequences, median “median log2 fold change of GCK-ALFA target abundance (FLAG IP / Myc IP barcode read proportion)” near 0.078, cut for the lowest 2% near -0.6. Some of the results follow.

B1: GBRAP_53_6398 (protein)
chain: AAAAIAAGLAELEALIAEVEADPTLDAADVAARAGALLKALAAAGAPEAELTALARRLAAAVAARGLGVEVSTALAATAAAAGREAVAAVFTEAAVEDLE
B2: GBRAP_160_4203 (protein)
chain: EEKVEEIIKELREEAERVIEELDEVSVEEAANFAAVEFGEVLMEAVEMGIENEKILEIIDKAADEVVKYLKENKDAPVEELKKKIREIVEEAIKKIKEEA
B3: GBRAP_83_6993 (protein)
chain: KEKIVVAAPGDRLLEAAEAAIDLSKEYGYEVSLEFLATPEDRERLLEAVRKLAEAGLETEVRVLLEGVTEEEAEELREELERIAKEHGVNIKVEVEVVEL
B4: GBRAP_35_5623 (protein)
chain: NTDKEIAEAVVAVLEDTLLAKDTVPADTFIDTAIKVARLGIEVAKELKEYKENAKKILEAVEKLLKAAKERAKETGAPEEKLKEIEKLLKEVEELKKKLE
B5: GBRAP_52_6370 (protein)
chain: MLEEALEKLREALEAVLAGKEEEAREILREIVENYSEETILEAFKRLAEELKEGTLEEAEAFLELALMLSDIMDEEGRSEAVGDEIEAIAARTYMEILER
B6: GBRAP_184_5039 (protein)
chain: KIKERVIEAENKEELKKKLEELKEEMKNFKGELILHVKSPKFTKEMVELLMKTLKEMLEEGYISSATVGLDGDMTEEVVDLAVKLADEAGIKVVLALDEE
B7: GBRAP_14_3794 (protein)
chain: MEEIEKILRETIEEIMELISDLPEEVLRELRERLEEIAEETLRRIKETGDIDEAMEEGRERAVEATREITADLPEERRAEAVAIVRVELDNAEEEIEEKY
B8: GBRAP_43_5747 (protein)
chain: DEELVLGAVEFTRLAAEEDEISDETVLKAFKAALDLMADTGVQLKEELIEAARALAKRLSDEQVEELIKYVKERAKANPKVKETFEAVIKVLEEELEKRK
B9: GBRAP_11_2885 (protein)
chain: KKEKLLELAKIAEEIVKAIEKLLKEGTDDEELLKKIKELLEELRKLTKEYADKGSQKLTEIAVELFEKALKDPENREEYLKELKAAVSVLEGDYLLEAEE
B10: GBRAP_160_4529 (protein)
chain: DEFLKKAEKLIEDAAEEAIKLIKGESTEERITIISMEFGSVAMEFAEDERASDEMVDVVLEEADKVIDTLKKNPNLSEEEIKALIEEARDKIIEKLRELY
B11: GBRAP_125_2963 (protein)
chain: SEEEDLKALATLAKALGFDEDDVAEAVELARKFGIKNTVIALFLAEGYEEVAELVEKLTEEEVREVLKELAKEIEANPDLTPEEVVELAKKLLEKKIAKK
B12: GBRAP_83_6927 (protein)
chain: KEKIVVAANDDNIDEAFEAAVDLQKEEGYEVDVEVMITPEGIEKLKKSFEKMAKAGWNGELDILLFGATEEEAKKLKEELEKIAKEYGVNVKINVEVVEP
B13: GBRAP_166_4976 (protein)
chain: SEEEIVKEVKAYIDELAEKMKTADHEEKLELLAEAAEKIREAREAGISPENLRELITYLIEKALAVGLTLSEVEGALTIIAELDEEEIDLLDEAIAEVKA
B14: GBRAP_160_4645 (protein)
chain: SESLEEMKEIIKEYSEIVLEEIDEGNMENALAAMRMMVGDLVLEADEDPRFSEEDVDKIDEKGDEFVEELEKNKNESKEKLKAIVKKAEEELKKLLEEAY
B15: GBRAP_74_6506 (protein)
chain: MEELVAELDAAIAAGDFVRAAEIAKEILAKADAETAVAAATRLLTAAVANLDKLTPEELDALVDLIVELYERIPDEKITDELAANAAKVVAAAVAAEKAR
B16: GBRAP_157_3953 (protein)
chain: EVLYRTFVVTPEDTLEEVRARAHAIAAEIKAAGVPAVLVIVVSKEDEELAESVADEIEAILGYETGQDVEVIRKILPASASREEAEAEAERLLEEARAAR
B17: GBRAP_160_4112 (protein)
chain: NEELLKLYKDGAEDLKETIELIKDLSNEEAGVLALVTLGEILIDFSEHDENFEELEELAEKQMEKIRETAKTDPSKLKEVSLEALEEMRKALEEKAKELE
B18: GBRAP_160_4038 (protein)
chain: NEKLEKLAKFAEEVFKEAEELIKGTTVEEAAVIVDVATGEIIMEAVELGIDNDELEDFIDEIGDEAVAYLLAHPDLTEEEIQALVKEAKEKILKKIKEAS
B19: GBRAP_78_6686 (protein)
chain: KVEELLDKALEHLNKAAKILAKMNTEESLDILGVVIDAAETVWEAEEGEADLEELEEALKKLEEALKEVKKIDSEEAKKAAEELEKAIKALKEAIKLLKE
B20: GBRAP_150_3893 (protein)
chain: MLEELLTIADTNADILEGMIESGEFNLNVLKTLAKVTEEEIKEAPEEIAKELKKAAEALKKAIKLIEAGAAPEEIKKELTKAAEAYKKAAELLEKKIKEE
B21: GBRAP_11_2707 (protein)
chain: KKEKLKEIAKLAAEAAALTEQLLKEGVDNKELQAKLTAKIKELTELVKKYADESLKKLAEIAKELWEKALADPENKEQYLKELLATLRVLEGQALLEIEE
B22: GBRAP_52_6077 (protein)
chain: MEARIEATADAIYEAIAAGDKAKALALLAAAIKEFSVEEITRLLELTARRVASLGDEAHELFVEVLDEGYDLLLAAGISEDDALAIVGAAEAALARAVAA
B23: GBRAP_125_3052 (protein)
chain: GLEEVIEALAALARLMGYSEEEVEELARLAREHGVKGALIALLLAEGEEEAAELAEKLSEEAVKEVLLEFLKWLKEHPDITKEEALEKLLELLKKALEKE
B24: GBRAP_160_4193 (protein)
chain: SEEVEKLLKEIDEIAEEAIEMIEGQTHEERLVIVEMAFGEILMLLHESPVVSDETVDKVDEIADEVVATLKANPDLTEEEIKALLREAVEKIKEIIKEDA
B25: GBRAP_9_7122 (protein)
chain: MEEMIEKMAEVVKDMIEDISLAVPSFTEEEKEEWLARVEELKEEALKDKSLTPEEIAERFKKLVEEIKEEVKKKVSPELAKIVDAISYTALEEIDEIVEE
B26: GBRAP_26_5486 (protein)
chain: GSREILDKLEEEVREILKDEPEEVRAAVVAEAINALIEFEEVVEKNINDEEKIEKAKKEALKEVDEFLKELGVPEDKREKVVKALEKALEEVEKEIKEKA
B27: GBRAP_160_4827 (protein)
chain: KASEEELFKLVDEERAEAIELIKGQTAEERAAIVAVEFGRFILELSENPEVSDELEEEVDAIARATVDTILANPDLTDAEVTALIEAAAAEIKEVIKKHL
B28: GBRAP_95_7065 (protein)
chain: SEDREIAEDLIDTAEDLVEIGAYEQAKRAAKAALEVLKEIGETGELALRAAEVLVEVAKATGDEEAAKAAKEALKAIKKAGGDEEKIEKLEKELEEAKKK
B29: GBRAP_160_4360 (protein)
chain: SEELKKLAEEIRKLREEFEEEAKDLSPEEVRILALGVLAEVGALIFHNEAVSDEVEDEIMEIIRKAEEEIRKNKDASPEEIVKITKEAFDKIIELVEKEA

Target: GABARAP, O95166
Assay: median log2 fold change of GCK-ALFA target abundance (FLAG IP / Myc IP barcode read proportion) (log2 ratio); each designed protein is fused to an ALFA-tag nanobody in HEK293 cells to bring the named protein to FLAG-tagged glucokinase (GCK); Myc marks an untargeted standard; higher = target protein stabilised (more abundant)
Details: target protein: 3xFLAG-MCP-GCK-ALFA reporter; HEK293 landing pad (RPLP)
Procedure, shortened: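 An ALFA-nanobody-fused binder library was recombined into HEK293 landing-pad cells and induced with 2 μg mL^−1 doxycycline. Cells were transfected with a plasmid expressing a FLAG-tagged target and a Myc-tagged standard. After 48 h, lysates underwent anti-FLAG and anti-Myc immunoprecipitation, and circular RNA barcodes were reverse transcribed, amplified and sequenced. Target abundance is the per-binder median log2 ratio of FLAG to Myc barcode read proportions. Barcodes needed ≥10^−7 proportion in both replicates, binders ≥3 barcodes per replicate, and a 10^−6 pseudocount was added; the two replicates were pooled.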

GABARAP, O95166, sequence (O95166 whole entry, the tested form may be a part): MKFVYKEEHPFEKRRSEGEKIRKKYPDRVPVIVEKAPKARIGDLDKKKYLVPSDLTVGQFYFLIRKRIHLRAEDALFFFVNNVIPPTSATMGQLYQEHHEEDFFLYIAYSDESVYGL

Binder | median log2 fold change
B1 | 0.254
B2 | 0.00649
B3 | 0.147
B4 | -0.669
B5 | -0.203
B6 | 0.0381
B7 | 0.104
B8 | 0.0669
B9 | -0.067
B10 | 0.0322
B11 | -0.725
B12 | -0.201
B13 | -0.00235
B14 | -0.245
B15 | -0.0484
B16 | 0.303
B17 | -0.0772
B18 | -0.621
B19 | -0.0389
B20 | 0.197
B21 | 0.13
B22 | -0.302
B23 | 0.0501
B24 | 0.0895
B25 | 0.067
B26 | 0.333
B27 | -0.0977
B28 | 0.0926
B29 | 0.336
